# Measurements taken from patent US20040029860A1, “Anti-proliferative drugs” (priority 2000, published 2004).
# Several values for one entry are separate records, joined by “and”; a condition that tells them apart may be missing. Identical values can stand only once. Like-named read-outs stand apart in the source and are kept apart here.
# How the values were obtained:
# mouse melanoma (B-16) = assay: cell viability, melanoma B16; assay type: cell-based; details: for IC50: Mus musculus
# Experimental: (§1) Cyclic antidepressants at varying concentrations (between 10PM and 100 μM) was applied to neuroblastoma SH-SY5T, 3LL lung carcinoma, prostate (LN-CapAp), melanoma B16, and cell viability was determined as described above.
# HaCat I5 keratinocytes = assay: keratinocyte viability, Neutral red, HaCat I5; assay type: cell-based, human
# Experimental: (§2) The drugs were administered at concentrations within the range of 5-100 μM and cell viability was measured 24 hr post-administration by Neutral red staining. The efficiency of the agents against viability of the cell lines was evaluated also by comparison with two commonly used anticancer agents (Doxorubicin and 5-fluorouracil (5-FU)) at equimolar concentrations.
# Colon Ht-29 = assay: cell viability, colon Ht-29; assay type: cell-based; details: Homo sapiens, Table 1A
# [1] = system: human prostate (LN-CapAp); assay: cell viability, prostate LN-Cap; assay type: cell-based; details: for IC50: Homo sapiens, LNCaP
# Experimental: The effect of trifluoperazine and flupentixol was studied in two cell-lines of human prostate cancer: androgen dependent (LN-Cap) and androgen independent (PC-3).
# as §1
# [2] = system: human prostate cancer PC-3; assay: cell viability, prostate PC-3; assay type: cell-based; details: Table 1A, read-out: Viability IC50 Prostate PC3
# HaCat keratinocytes = assay: keratinocyte viability, Neutral red, HaCat; assay type: cell-based; details: Homo sapiens
# Experimental: as §2
# different cell-lines = assay: mean IC50 over cell lines and therapeutic index
# [3] = system: human neuroblastoma (SH-SY5T); assay: cell viability, neuroblastoma SH-SY5T; assay type: cell-based; details: for IC50: Homo sapiens
# Experimental: The effect of paroxetine on primary tissue cultures was also evaluated. […] The viability of the cells after treatment with paroxetine was determined by neutral red (NR) technology 24 hr. post treatment.
# as §1
# rat glioblastoma (C6) = assay: cell viability, glioma C6; assay type: cell-based
# [4] = system: human neuroblastoma (SK-N-SH); assay: cell viability (neutral red, Almar Blue, Hoechst dye), neuroblastoma SK-N-SH; assay type: cell-based; details: for IC50: Homo sapiens, SK-N-SH
# [5] = system: HaCat II-4RT keratinocytes; assay: keratinocyte viability, Neutral red, HaCat II4; assay type: cell-based; details: Homo sapiens
# Experimental: as §2
# [6] = system: mouse melanoma B16 MDR cells; assay: cell viability, melanoma B16 MDR; assay type: cell-based
# mouse lung sarcoma (3LL) = assay: cell viability, lung 3LL; assay type: cell-based; details: Table 1B, read-out: Cell viability IC50 Lungs Sarcoma 3LL
# Experimental: In another experiment the effect of clotiapine at the same concentrations on the viability of mouse lung carcinoma (3LL) cells was determined.
# as §1
# [7] = Table 1A, read-out: Viability IC50 Melanoma B16
# [8] = Homo sapiens, HaCaT, mean of the determinations, read-out: IC50 HaCat I5 ME
# [9] = Homo sapiens, HaCaT, single determinations, read-out: IC50 HaCat I5
# [10] = single determinations, read-out: IC50 HaCat I5
# [11] = mean of the determinations, read-out: IC50 HaCat ME
# [12] = single determinations, read-out: IC50 HaCat
# [13] = Table 1A, read-out: Viability IC50 Neuroblastoma SH-SY5T
# [14] = Table 1B, read-out: Cell viability IC50 Melanoma 16B
# [15] = Example 9, read-out: IC50 levels, wild type B16 mouse melanoma
# [16] = Table 1B, read-out: Cell viability IC50 Prostate LN-Cap
# [17] = B16, Example 9, FIG. 9, read-out: IC50 levels, transformed (MDR) B16 melanoma
# [18] = Table 1B, read-out: Cell viability IC50 Melanoma B16 MDR
# [19] = Table 1B, read-out: Cell viability IC50 Neuroblastoma SH-SY5T
Structure (SMILES),IC50 (HaCat I5 keratinocytes; [8]) [µM],IC50 (HaCat I5 keratinocytes; [9]) [µM],IC50 (HaCat I5 keratinocytes; [10]),IC50 (HaCat keratinocytes; [11]) [µM],IC50 (HaCat keratinocytes; [12]) [µM],IC50 (mouse melanoma (B-16); [14]) [µM],IC50 [5] [µM],IC50 (different cell-lines; read-out: IC50 Mean +/− SD) [µM],"IC50 [1, 16] [µM]","IC50 [6, 18] [µM]",IC50 (mouse lung sarcoma (3LL)) [µM],also measured
CSc1ccc2c(c1)N(CCC1CCCCN1C)c1ccccc1S2 (stereo not drawn) [Thioridazine],14,13,15 µM,11.5,9,,,,,,,"IC50 (mouse melanoma (B-16); [7]): 16 µM; IC50 (Colon Ht-29): 19 µM; IC50 ([1]; Table 1A, read-out: Viability IC50 Prostate LN-Cap): 14 µM; IC50 [2]: 24 µM; IC50 (different cell-lines; read-out: IC50 Mean ± SD): 16.5 ± 4.1 µM; IC50 [3, 13]: 11 µM; IC50 (rat glioblastoma (C6); Table 1A): 13 µM; IC50 ([4]; Table 1A): 15 µM"
CN1CCN2c3ccccc3Cc3ccccc3C2C1 (stereo not drawn) [Mianserin],,,,,,,,,,,,Viability IC50 Prostate LN-CapAp ([1]; Table 1C): Non Toxic; Viability IC50 Neuroblastoma SH-SY5T ([3]; Table 1C): Non Toxic
CN(C)CCC=C1c2ccccc2COc2ccccc21 [Doxepin],62,62,,,,76,48,76,,,,
O=C(CCCN1CCC(O)(c2ccc(Cl)cc2)CC1)c1ccc(F)cc1 [Haloperidol],,,,,,,,,,,,"IC50 ([3]; Table 1C, read-out: Viability IC50 Neuroblastoma SH-SY5T): > 100 µM; IC50 (rat glioblastoma (C6); Table 1C): ≥ 100 µM; IC50 ([4]; Table 1C): ≥ 100 µM"
OCCN1CCN(CCCN2c3ccccc3Sc3ccc(C(F)(F)F)cc32)CC1 [Fluphenazine],22,26,18 µM,19,16,,,,,,,"IC50 (mouse melanoma (B-16); [7]): 18 µM; IC50 (different cell-lines; read-out: IC50 Mean ± SD): 18.5 ± 2.2 µM; IC50 [3, 13]: 15 µM; IC50 (rat glioblastoma (C6); Table 1A): 20 µM; IC50 ([4]; Table 1A): 21 µM"
CNCCC(Oc1ccc(C(F)(F)F)cc1)c1ccccc1 (stereo not drawn) [Fluoxetine],20,20,,,,14,13,14.1,17,14,< 10,"IC50 (mouse melanoma (B-16); [15]): 15 to 20 µM; IC50 [6, 17]: 15 to 20 µM"
CN1CCN(C2=Nc3cc(Cl)ccc3Nc3ccccc32)CC1 [Clozapine],> 100,> 100,,> 100,> 100,32,73,36,42,35,33,"IC50 [3, 19]: 74 µM"
Cc1nc2n(c(=O)c1CCN1CCC(c3noc4cc(F)ccc34)CC1)CCCC2 [Risperidone],,,,,,,,,,,,Viability IC50 Melanoma B16 (mouse melanoma (B-16); Table 1C): Non Toxic; Viability IC50 Neuroblastoma SH-SY5T ([3]; Table 1C): Non Toxic; Viability IC50 Neuroblastoma SK-N-SH ([4]; Table 1C): Non Toxic
CN(C)CCCN1c2ccccc2CCc2ccc(Cl)cc21 [Clomipramine],,,31 µM and 24 µM,20,20,20,16,19.8,22,36,< 10,"IC50 (mouse melanoma (B-16); [15]): 15 to 20 µM; IC50 [3, 19]: 21 µM; IC50 [6, 17]: 15 to 20 µM"
